According to ChEMBL document CHEMBL1201862, “PubChem BioAssay data set” (2004):
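Cells were grown in 96-well plates and exposed to each compound for 48 hours at five concentrations; endpoints were interpolated linearly between bracketing concentrations, or set to the highest concentration if not reached. Here, GI50 denotes the concentration required for 50% inhibition of growth.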 Activity calls are given as the source filed them. Rule as the data show it: active = GI50 up to about 1.1 µM and inactive = higher.

Each compound was assayed on NCI-H322M (assay: NCI anticancer screen, dose series, 48 h).
`Sc1ncnc2c1ncn2C1CCCO1` (configuration not stated) was tested, and the GI50 was inactive: > 100 µM. In the case of `O=C1C2=Cc3ccccc3CCN2c2ccccc21`, the GI50 is reported as inactive: > 64.3 µM. In the case of `COC(=O)[C@H](CCSC)NC(=O)c1ccc(CNC(=O)/C=C/c2cccc(Oc3ccccc3)c2)cc1`, the GI50 is reported as inactive: 38.2 µM. In the case of `N/N=C1\C(=O)N(Cc2ccccc2)C(=O)C1C(=O)NCc1ccccc1` (configuration not stated), the GI50 is reported as inactive: > 100 µM. `O=C(CCC(=O)N/N=C/c1ccccc1O)N/N=C/c1ccccc1O` was tested, and the GI50 was inactive: > 100 µM. For `COC(=O)[C@@H]1C=C[C@H](OC2OC(COC(C)=O)C(OC(C)=O)C(OC(C)=O)C2OC(C)=O)n2c(=O)n(-c3ccccc3)c(=O)n21` (some centres not stated), the GI50 was inactive: 15.2 µM. With `CCCCCCCCCCCCc1ccsc1-c1ccc(-c2ccc(-c3sc(-c4cc(CCCCCCCCCCCC)c(-c5ccc(-c6ccc(-c7sccc7CCCCCCCCCCCC)s6)s5)s4)cc3CCCCCCCCCCCC)s2)s1` the GI50 was inactive: > 100 µM. In the case of `Clc1cccc2c1OCC1C(c3ccccc3)=NN(c3ccccc3)C21` (configuration not stated), the GI50 is reported as inactive: > 100 µM. With `COC(=O)CN1c2nc(C#N)c(C#N)nc2N(CC(=O)OC)c2nc(C#N)c(C#N)nc21` the GI50 was inactive: 14.9 µM. `COc1ccc([C@@H]2CC(=O)NCCCCNCCCN2)cc1` was tested, and the GI50 was inactive: > 100 µM. With `O=c1/c(=C/c2ccccc2[N+](=O)[O-])sc2nnc(-c3cccnc3)n12` the GI50 was inactive: > 100 µM. `COc1ccccc1C(O)[C@@H]1C[C@@H]2[C@H]3CC[C@@](C)([C@@H]2O1)C3(C)C` (some centres not stated) was tested, and the GI50 was inactive: 22.1 µM. In the case of `O=C(/C=C1\N=C(c2ccccc2)N(c2ccc3c(c2)Sc2cc(N4C(=O)/C(=C/C(=O)/C=C/c5ccccc5)N=C4c4ccccc4)ccc2N3)C1=O)/C=C/c1ccccc1`, the GI50 is reported as inactive: 21.1 µM. In the case of `O=C(Cc1ccccc1)NCCCN(CCCCN(CCCNC(=O)Cc1ccccc1)C(=O)OCc1ccccc1)C(=O)OCc1ccccc1`, the GI50 is reported as inactive: > 100 µM. In the case of `CC1(C)OC[C@H](COCOP2(=O)Oc3ccc4ccccc4c3-c3c(ccc4ccccc34)O2)O1`, the GI50 is reported as inactive: 18.9 µM. In the case of `O=C(NC(=O)c1cc2cc(Br)cc(Br)c2oc1=O)Oc1ccccc1`, the GI50 is reported as inactive: > 100 µM. In the case of `O=C(O)c1ccccc1/C=C1\Cc2cc3c(cc2C1=O)CCC3`, the GI50 is reported as inactive: 36.1 µM. `C[C@]12C[C@H](c3ccccc3)Nc3ccccc3N1C(c1ccccc1)=NO2` was tested, and the GI50 was inactive: > 100 µM. For `Cc1ccc(-c2nc(N/N=C/C=C/c3ccccc3)c3ccccc3n2)cc1`, the GI50 was inactive: 18.1 µM. With `CSCC[C@H](NC(=O)[C@H](CC(C)C)NC(=O)[C@@H](Cc1ccccc1)NC(=O)CNC(=O)[C@@H](NC(=O)[C@H](C)NC(=O)[C@H](Cc1c[nH]c2ccccc12)NC(=O)[C@H](CCC(N)=O)NC(=O)[C@H](N)CC(N)=O)C(C)C)C(N)=O` the GI50 was inactive: > 12.5 µM. With `CC1(C)OCN(c2ccc(N3CCOCC3)cc2)Cn2c1nc1ccccc12` the GI50 was inactive: > 100 µM. In the case of `C[C@]12CCNC(=O)C=C1CC[C@@H]1C2CC[C@@]2(C)C1CC[C@@H]2OC(=O)COc1ccc(N(CCCl)CCCl)cc1` (some centres not stated), the GI50 is reported as inactive: 17 µM. For `CCO[C@@]1(COCc2ccccc2)OC(=O)C[C@@H]1N1C(=O)OC[C@@H]1c1ccccc1`, the GI50 was inactive: > 100 µM. For `CCOC(=O)C(NC(=O)C(CCCCNP(=O)(OCC)OCC)NC(=O)C(C)NC(C)=O)C(C)C` (configuration not stated), the GI50 was inactive: > 100 µM. `N#CC[C@@H](O)COc1ccccc1` was tested, and the GI50 was inactive: > 100 µM. In the case of `CN1CCn2c(Br)ccc2C1=O`, the GI50 is reported as inactive: > 100 µM. For `CC1(C)OC2C(CO)OC(n3ccc(=O)[nH]c3=O)C2O1` (configuration not stated), the GI50 was inactive: > 100 µM. For `Cc1ccc(S(=O)(=O)NC(=O)C2S(=O)(=O)OCCOS2(=O)=O)cc1`, the GI50 was inactive: > 100 µM. For `CC(=O)C1CC=C(C)CC1` (configuration not stated), the GI50 was inactive: > 100 µM. With `O=c1cc(-c2ccccc2)c2cc3c(=O)ccoc3cc2o1` the GI50 was inactive: > 100 µM. `O=C1C(Cl)N(c2ccccc2Cl)C1c1c[nH]c2ccccc12` (configuration not stated) was tested, and the GI50 was inactive: > 100 µM. For `CCc1cccc(C(C)C)c1NC1=C([n+]2ccc(C)cc2)C(=O)c2ccccc2C1=O.[O-][Cl+3]([O-])([O-])[O-]`, the GI50 was inactive: 3.75 µM.
